Source: ChEMBL document CHEMBL4888484, “Replenishing the malaria drug discovery pipeline: Screening and hit evaluation of the MMV Hit Generation Library 1 (HGL1) against asexual blood stage Plasmodium falciparum ,using a nano luciferase reporter read-out” (2022)
Where “and” joins values, the source holds several entries; their conditions need not be identical. Equal values may be shown once. In all, about 150,000 compounds went through this assay and about 540 (0.36%) showed an effect of 50% or more. Some of the results follow.

System: Plasmodium falciparum
Assay: Primary screen in NF54 nanoGlo assay, in single point, at 2uM, 72h; a lower Z score goes with more inhibition
Assay type: functional, Erythrocyte
Conditions: timepoint 72 hour

| Structure (SMILES) | % Inhibition [%] | Z score | % Inhibition (2 µM) |
| --- | --- | --- | --- |
| COc1cc(OC)cc(N(C)C(=O)Cc2c(C)noc2C)c1 | 3 | -0.55 | – |
| CCCN1CCN(S(=O)(=O)c2ccc3c(c2)N(Cc2noc(C4CCC4)n2)C(=O)CO3)CC1 | -9 | 1.07 | – |
| O=C(N[C@H]1CCS(=O)(=O)C1)c1cc(OCc2ccccc2)ncn1 | -8 | 1.52 | – |
| COc1ccc(Cn2ncc(C)c2NC(=O)c2ncc(F)cc2F)cc1OC | -9 | 1.24 | – |
| COc1ccc(C(=O)N(CCN2CCOCC2)CC(=O)N2N=C(c3ccc(F)cc3)C[C@H]2c2ccc(F)cc2)cc1 | 1 | -0.12 | – |
| COCCO[C@H]1COCCN(C(=O)c2ccccc2)C1 | 17 | -2.02 | – |
| Cc1cn(CCCC(=O)O)nc1C(F)(F)F | 28 | -3.14 | – |
| Cc1nc(N)[nH]c(=O)c1CC(=O)N1c2ccccc2C[C@@H]1C | -10 | 0.96 | – |
| COc1ccc(CNC(=O)c2ccc(-n3nc(C)c4c3CCCC4=O)cc2)cc1 | -10 | 1.31 | – |
| CCCN(CCOC)C(=O)c1ccc(C(=O)O)s1 | -7 | 1.29 | – |
| O=C(NC(CN1C(=O)COC1=O)c1ccccc1)C1COc2ccccc2O1 (stereo unspecified) | -11 | 1.63 | – |
| Cc1nc(C2CC2)oc1C(=O)N1CCc2cc(C#N)ccc21 | -1 | 0.24 | – |
| COc1cccc(-c2cc3c(n2-c2ccc(C(=O)NCCc4ccco4)cc2)CCCCC3)c1 | 2 | -0.19 | – |
| CCN1CCC[C@@H]1CN(C)CC(=O)Nc1cc(C)nn1-c1nc(C)cc(C)n1 | -9 | 0.91 | – |
| COC[C@H](O)CNC(=O)c1cccn1C1CC1 | 35 | -1.34 | – |
| Cc1cncc(-c2cc(N3CCN(C)CC3)nc(N)n2)c1 | -5 | 0.94 | – |
| O=C1C[C@H](c2nc(-c3cccnn3)no2)CN1C1CCCC1 | -18 | 3.14 | – |
| Cc1nccc(C(=O)Nc2nc3cc(F)c(F)cc3s2)n1 | -8 | 1.15 | – |
| CC[C@@](C)(CCCNC(=O)c1cccc(OCC(N)=O)c1)C1OCCO1 | 0 | -0.03 | – |
| O=C(CC1=CCCCC1)Nc1cc(C(F)(F)F)n[nH]1 | 7 | -1.26 | – |
| Cc1ccc(S(=O)(=O)c2cn(CC(=O)Nc3ccccc3C)c3nc(C)ccc3c2=O)cc1 | 8 | -1.49 | – |
| COc1ccc([C@@H](C)NC(=O)NC2CCn3ccnc32)c(OC)c1 (stereo partly specified) | 2 | -0.36 | – |

| Structure (SMILES) | % Inhibition [%] | Z score | % Inhibition (2 µM) |
| --- | --- | --- | --- |
| CC(=O)N1CCC(CNC(Cc2ccccc2)C(C)NC(=O)OC(C)(C)C)CC1 (stereo unspecified) | 13 | -2.02 | – |
| Cn1nccc1CN1CCC[C@@H]1CC(=O)c1ccc(F)cc1 | -13 | 1.87 | – |
| Cc1cc(CNS(=O)(=O)CC2CCC(C(F)(F)F)O2)on1 (stereo unspecified) | 0 | 0.01 | – |
| CN(Cc1cscn1)C(=O)C1(Cc2ccccc2)CCC1 | -3 | 0.27 | – |
| Cc1c(Cl)ccc(NC(=O)NCCN(C)S(C)(=O)=O)c1Cl | -8 | 1.35 | – |
| CC(C)(C#N)CCCNc1cccc(CO)c1 | -10 | 1.53 | – |
| CCOc1nc(C)nc2cc(-c3ccccc3)n(Cc3ccccc3)c12 | 36 | -1.29 | – |
| COc1cccc(CN2C(=O)CCCC[C@H]2C(=O)N2CCN(c3ncccn3)CC2)c1 | 5 | -0.6 | – |
| Cc1nnc(CN[C@@H](Cc2ccccc2)C(C)(C)C)n1C | -6 | 0.58 | – |
| Cc1cc(C)n(CC2(CNC(=O)Nc3ccc4c(c3)C[C@H](C)O4)CC2)n1 | 4 | -0.58 | – |
| Cc1n[nH]c(C)c1CNC[C@H](C)Cn1cccn1 | -12 | 1.82 | – |
| Cc1ccnc(NS(=O)(=O)c2ccc(NC(=O)c3cc(C)on3)cc2)n1 | -10 | 1.88 | – |
| CC(=O)NC1(c2nccs2)CCCC1 | -11 | 1.47 | – |
| CC(=O)N[C@H]1[C@H](Nc2ncnc3sc(C)c(C)c23)[C@@H]2CCO[C@@H]21 | -4 | 0.78 | – |
| Cc1ncc(CN2CCN(C)CC2)c2cc(C(=O)c3ccc4c(c3)OCCO4)oc12 | – | – | -3% and 6% |
| Cc1cc(C(=O)N[C@H]2CC[C@H](n3cnnc3)CC2)[nH]n1 | -10 | 1.83 | – |
| O=C(NC1CCCCCC1)c1cc2n(n1)CCCN(Cc1ccc(Cl)cc1)C2=O | 8 | -1.6 | – |
| CC(C)Cn1ncnc1COC(=O)c1cccc2cc[nH]c12 | -1 | 0.06 | – |
| CC[C@](C)(O)CNC(=O)C(=O)Nc1cc(F)cc(F)c1 | -7 | 0.8 | – |
| CC(=O)N1CCN(C(=O)c2ccc(-c3ccc(F)cc3)n2C)CC1 | -22 | 2.81 | – |
| CCCCOc1ccc(C)cc1S(=O)(=O)n1cncn1 | -2 | 0.46 | – |
| CCN1CC(=O)N[C@H]2CN(C(=O)c3cc4ncccn4n3)CC[C@@H]2OCc2cccc(c2)Oc2cc(OC(C)C)cc(c2)C1=O | -2 | 0.4 | – |

| Structure (SMILES) | % Inhibition [%] | Z score | % Inhibition (2 µM) |
| --- | --- | --- | --- |
| CCCC1CCCCC1CNC(=O)N1CC(=O)N(C)C1 (stereo unspecified) | -16 | 1.39 | – |
| CCC(CC)(CO)C(=O)N1CCC(c2nc(C)no2)CC1 | -7 | 1.17 | – |
| CC[C@@H](CO)NC(=O)c1ccc(F)cc1C | -7 | 0.65 | – |
| O=C(Nc1cccc(-c2ccc3c(c2)OCCO3)n1)C1C2CCCC21 (stereo unspecified) | -1 | 0.16 | – |
| COc1ccc(CNC(=O)CN2CC[C@H](C)c3cccc(OC)c32)cc1 | -4 | 0.71 | – |
| Cc1ccc(CN(C(=O)COc2ccc(Br)cc2)c2ccccn2)o1 | 13 | -1.55 | – |
| Cc1nnc([C@@H]2CCCN2Cc2c(F)cccc2Br)o1 | 9 | -1.1 | – |
| CCn1cc(S(=O)(=O)N[C@H]2CC(=O)N(C(C)C)C2)cn1 | -12 | 2.21 | – |
| Cc1sc(C(N)=O)cc1NC(=O)c1ccc(CNC(=O)c2cccs2)cc1 | -14 | 2.08 | – |
| Cc1n[nH]c(C)c1CC(=O)NC1(C(=O)O)CCC1 | 3 | -0.25 | – |
| CS(=O)(=O)CCn1cnc(-c2ccccc2)c1-c1nc2ccccc2[nH]1 | -13 | 1.59 | – |
| Cc1c(C(=O)N2CCC(C)CC2)c(S(=O)(=O)N2CCc3ccccc32)c(C)n1C | -12 | 2.26 | – |
| O=C1COCC(CC2CNc3ccccc32)N1 (stereo unspecified) | -14 | 1.45 | – |
| COc1cc(CNCc2ccccn2)ccc1OCc1ccccc1Cl | 8 | -0.92 | – |
| O=C(Cn1nc(-c2ccc(F)cc2)c2cnc3ccccc3c21)Nc1cccc(F)c1 | -2 | 0.36 | – |
| CCCc1cnc(C)nc1NCCS(=O)(=O)NC | -18 | 1.66 | – |
| NC(=O)CN1CCC(NC2CCCCCCC2)CC1 | -2 | 0.28 | – |
| O=C(CCOCC(F)(F)C(F)F)N1CCOCC12CCC2 | -4 | 0.46 | – |
| CC(=O)N1CC(C(=O)NCc2ccco2)CCC1c1cccc(C(F)(F)F)c1 (stereo unspecified) | -18 | 2.63 | – |
| O=c1c2cc(Cl)ccc2ncn1Cc1coc(-c2ccccc2)n1 | -7 | 1.28 | – |
| CCCn1ncc(-c2ccnc(NCC[C@H]3CCCN3C)n2)c1C | -2 | 0.27 | – |
| CC(C)Oc1ccc([C@H]2CC3(C)NC(=O)C2C(=O)N3)cc1 | -3 | 0.34 | – |

| Structure (SMILES) | % Inhibition [%] | Z score | % Inhibition (2 µM) |
| --- | --- | --- | --- |
| Cc1nccc(CNC(=O)NCCOc2ccccc2C)n1 | 1 | -0.21 | – |
| Cc1cc(CN(C)Cc2csnn2)no1 | -5 | 0.7 | – |
| CCc1nn(C)cc1CNC(=O)NCc1ccc(C)cc1N(C)C | -10 | 1.8 | – |
| COc1ccc(NC(=O)CCc2nnc[nH]2)cc1NC(=O)C1CCCCC1 | -12 | 1.66 | – |
| Cc1ncnc(N(C)Cc2ccnn2C)c1C | -5 | 0.91 | – |
| Cc1cc(C(=O)N2CCN(c3ncccn3)CC2)c(C)s1 | -6 | 1.15 | – |
| CC(=O)c1cc(-c2ccc(C(=O)NCCN3CCCCC3)cc2)ccc1O | -10 | 1.43 | – |
| Cc1csc2c(N3C[C@@H](C)[C@](C)(CN)C3)ncnc12 | -4 | 0.38 | – |
| CCn1nccc1C(=O)N1CCCCCNC(=O)[C@@H]2CCC[C@@H]21 | -6 | 0.72 | – |
| COc1cccn(CC(=O)N(C)C[C@H]2CCOC2)c1=O | -2 | 0.22 | – |
| CCc1cc(CN(C)C(=O)c2cnc(-c3ccc(C)cc3)nc2O)on1 | 0 | 0.01 | – |
| Cn1ccnc(N2CCC3(CC2)CNC(=O)c2ccccc2O3)c1=O | 2 | -0.4 | – |
| C#CCNC(=O)[C@@H]1C(=O)N(Cc2ccccc2)N=C1C | 9 | -1.01 | – |
| Cn1cc(-c2cc3n(n2)CCC(=O)N3CC(=O)N2CCN(c3ccc(F)cc3)CC2)c2ccccc21 | -2 | 0.46 | – |
| O=C1NCCCCCN(C(=O)NCCc2ccccc2)[C@H]2CCCC[C@@H]12 | 8 | -1.05 | – |
| C#CC[C@H](NC(=O)c1csc(C(C)(C)C)n1)C(=O)O | -4 | 0.48 | – |
| CCc1nccn1CC(=O)N1CC[C@H](C2CCCCC2)C1 | 1 | -0.21 | – |
| CCCCn1nc(-c2ccccc2)c2nc3ccccc3nc21 | 25 | -2.85 | – |
| Cn1cc(C(N)=O)c(NCC2CCCCCC2)n1 | -6 | 0.78 | – |
| O=C(Nc1ccccc1CN1CCCCC1)[C@H]1CC12CCC2 | 1 | -0.24 | – |
